From the supplement of paper PMC8728848
Some of the results follow.

How the values were obtained:
Experiment in all cases: glycan array binding signal (z-score within array); higher = stronger binding
Conditions in all cases: glycan notation: IUPAC condensed, linker removed
[1] = target: Gal(b1-3)GlcNAc(b1-2)Man(a1-3)[Gal(b1-3)GlcNAc(b1-2)Man(a1-6)]Man(b1-4)GlcNAc(b1-4)[Fuc(a1-6)]GlcNAc
In short: (§1)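 The Consortium for Functional Glycomics database supplied 3228 glycan arrays, of which those lacking an available protein sequence were dropped. The binding signal, a within-array Z-score, was averaged across arrays of the same protein sequence and across linkers. Negative scores can be read as non-binding.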

[2] = target: Gal(b1-3)GlcNAc(b1-2)Man(a1-3)[GlcNAc(b1-4)][Gal(b1-3)GlcNAc(b1-2)Man(a1-6)]Man(b1-4)GlcNAc(b1-4)GlcNAc
In short: as §1

[3] = target: Gal(b1-3)GlcNAc(b1-2)[Gal(b1-3)GlcNAc(b1-6)]Man(a1-6)[Gal(b1-3)GlcNAc(b1-2)Man(a1-3)]Man(b1-4)GlcNAc(b1-4)GlcNAc
In short: as §1

[4] = target: Gal(b1-3)GlcNAc(b1-3)Gal(b1-3)GlcNAc
In short: as §1

[5] = target: Gal(b1-3)GlcNAc(b1-3)Gal(b1-4)Glc
In short: as §1

[6] = target: Gal(b1-3)GlcNAc(b1-3)Gal(b1-4)GlcNAc
In short: as §1

[7] = target: Gal(b1-3)GlcNAc(b1-3)Gal(b1-4)GlcNAc(b1-2)Man(a1-3)[Gal(b1-3)GlcNAc(b1-3)Gal(b1-4)GlcNAc(b1-2)Man(a1-6)]Man(b1-4)GlcNAc(b1-4)GlcNAc
In short: as §1

[8] = target: Gal(b1-3)GlcNAc(b1-3)Gal(b1-4)GlcNAc(b1-2)[Gal(b1-3)GlcNAc(b1-3)Gal(b1-4)GlcNAc(b1-6)]Man(a1-6)[Gal(b1-3)GlcNAc(b1-3)Gal(b1-4)GlcNAc(b1-2)Man(a1-3)]Man(b1-4)GlcNAc(b1-4)[Fuc(a1-6)]GlcNAc
In short: as §1

[9] = target: Gal(b1-3)GlcNAc(b1-3)Gal(b1-4)GlcNAc(b1-3)Gal(b1-4)GlcNAc(b1-2)[Gal(b1-3)GlcNAc(b1-3)Gal(b1-4)GlcNAc(b1-3)Gal(b1-4)GlcNAc(b1-6)]Man(a1-6)[Gal(b1-3)GlcNAc(b1-3)Gal(b1-4)GlcNAc(b1-3)Gal(b1-4)GlcNAc(b1-2)Man(a1-3)]Man(b1-4)GlcNAc(b1-4)[Fuc(a1-6)]GlcNAc
In short: as §1

[10] = target: Gal(b1-3)GlcNAc(b1-3)Gal(b1-4)GlcNAc(b1-6)[Gal(b1-3)GlcNAc(b1-3)]Gal(b1-4)Glc
In short: as §1

[11] = target: Gal(b1-3)GlcNAc(b1-3)Gal(b1-4)[Fuc(a1-3)]GlcNAc
In short: as §1

[12] = target: Gal(b1-3)GlcNAc(b1-3)Gal(b1-4)[Fuc(a1-3)]GlcNAc(b1-6)[Gal(b1-3)GlcNAc(b1-3)]Gal(b1-4)Glc
In short: as §1

[13] = target: Gal(b1-3)GlcNAc(b1-3)GalNAc
In short: as §1

[14] = target: Gal(b1-3)GlcNAc(b1-6)Gal(b1-4)GlcNAc
In short: as §1

[15] = target: Gal(b1-3)GlcNAc(b1-6)GalNAc
In short: as §1

[16] = target: Gal(b1-3)GlcNAc(b1-6)[Gal(b1-3)]GalNAc
In short: as §1

[17] = target: Gal(b1-3)GlcNAc6S
In short: as §1

[18] = target: Gal(b1-3)[Fuc(a1-4)]GlcNAc
In short: as §1

[19] = target: Gal(b1-3)[Fuc(a1-4)]GlcNAc(b1-2)Man
In short: as §1

[20] = target: Gal(b1-3)[Fuc(a1-4)]GlcNAc(b1-2)Man(a1-3)[Gal(b1-3)[Fuc(a1-4)]GlcNAc(b1-2)Man(a1-6)]Man(b1-4)GlcNAc(b1-4)[Fuc(a1-6)]GlcNAc
In short: as §1

[21] = target: Gal(b1-3)[Fuc(a1-4)]GlcNAc(b1-3)Gal(b1-3)[Fuc(a1-4)]GlcNAc
In short: as §1

[22] = target: Gal(b1-3)[Fuc(a1-4)]GlcNAc(b1-3)Gal(b1-4)[Fuc(a1-3)]GlcNAc
In short: as §1

[23] = target: Gal(b1-3)[Fuc(a1-4)]GlcNAc(b1-6)GalNAc
In short: as §1

[24] = target: Gal(b1-3)[GlcNAc(b1-6)]GalNAc
In short: as §1

[25] = target: Gal(b1-3)[Neu5Ac(a2-6)]GalNAc
In short: as §1

[26] = target: Gal(b1-3)[Neu5Ac(a2-6)]GlcNAc(b1-4)Gal(b1-4)Glc
In short: as §1

[27] = target: Gal(b1-3)[Neu5Ac(b2-6)]GalNAc
In short: as §1

[28] = target: Gal(b1-4)Gal
In short: as §1

[29] = target: Gal(b1-4)GalNAc(a1-3)[Fuc(a1-2)]Gal(b1-4)GlcNAc
In short: as §1

[30] = target: Gal(b1-4)GalNAc(b1-3)[Fuc(a1-2)]Gal(b1-4)GlcNAc
In short: as §1

[31] = target: Gal(b1-4)Glc
In short: as §1

[32] = target: Gal(b1-4)Glc6S
In short: as §1

[33] = target: Gal(b1-4)GlcNAc
In short: as §1

[34] = target: Gal(b1-4)GlcNAc(a1-6)Gal(b1-4)GlcNAc
In short: as §1

[35] = target: Gal(b1-4)GlcNAc(b1-2)Man
In short: as §1

[36] = target: Gal(b1-4)GlcNAc(b1-2)Man(a1-3)Man(b1-4)GlcNAc(b1-4)GlcNAc
In short: as §1

[37] = target: Gal(b1-4)GlcNAc(b1-2)Man(a1-3)[Gal(b1-4)GlcNAc(b1-2)Man(a1-6)]Man(b1-4)GlcNAc(b1-4)GlcNAc
In short: as §1

B1: mCC1-Hexahis-Precomplexed (Mus musculus), P31809 (protein)
chain: MELASAHLHKGQVPWGGLLLTASLLASWSPATTAEVTIEAVPPQVAEDNNVLLLVHNLPLALGAFAWYKGNTTAIDKEIARFVPNSNMNFTGQAYSGREIIYSNGSLLFQMITMKDMGVYTLDMTDENYRRTQATVRFHVHPILLKPNITSNNSNPVEGDDSVSLTCDSYTDPDNINYLWSRNGESLSEGDRLKLSEGNRTLTLLNVTRNDTGPYVCETRNPVSVNRSDPFSLNIIYGPDTPIISPSDIYLHPGSNLNLSCHAASNPPAQYFWLINEKPHASSQELFIPNITTNNSGTYTCFVNNSVTGLSRTTVKNITVLEPVTQPFLQVTNTTVKELDSVTLTCLSNDIGANIQWLFNSQSLQLTERMTLSQNNSILRIDPIKREDAGEYQCEISNPVSVRRSNSIKLDIIFDPTQGGLSDGHHHHHH
[1]
  glycan array binding signal (z-score): -0.158
[2]
  glycan array binding signal (z-score): -0.162
[3]
  glycan array binding signal (z-score): -0.273
[4]
  glycan array binding signal (z-score): -0.192
[5]
  glycan array binding signal (z-score): -0.284
[6]
  glycan array binding signal (z-score): -0.201
[7]
  glycan array binding signal (z-score): -0.18
[8]
  glycan array binding signal (z-score): -0.016
[9]
  glycan array binding signal (z-score): 0.016
[10]
  glycan array binding signal (z-score): -0.293
[11]
  glycan array binding signal (z-score): -0.207
[12]
  glycan array binding signal (z-score): -0.233
[13]
  glycan array binding signal (z-score): -0.096
[14]
  glycan array binding signal (z-score): -0.289
[15]
  glycan array binding signal (z-score): -0.128
[16]
  glycan array binding signal (z-score): -0.156
[17]
  glycan array binding signal (z-score): -0.204
[18]
  glycan array binding signal (z-score): -0.191
[19]
  glycan array binding signal (z-score): 0.037
[20]
  glycan array binding signal (z-score): 0.03
[21]
  glycan array binding signal (z-score): 0.114
[22]
  glycan array binding signal (z-score): -0.217
[23]
  glycan array binding signal (z-score): -0.085
[24]
  glycan array binding signal (z-score): -0.171
[25]
  glycan array binding signal (z-score): -0.108
[26]
  glycan array binding signal (z-score): -0.266
[27]
  glycan array binding signal (z-score): -0.13
[28]
  glycan array binding signal (z-score): -0.085
[29]
  glycan array binding signal (z-score): -0.247
[30]
  glycan array binding signal (z-score): -0.172
[31]
  glycan array binding signal (z-score): -0.223
[32]
  glycan array binding signal (z-score): -0.126
[33]
  glycan array binding signal (z-score): -0.228
[34]
  glycan array binding signal (z-score): -0.282
[35]
  glycan array binding signal (z-score): -0.226
[36]
  glycan array binding signal (z-score): -0.24
[37]
  glycan array binding signal (z-score): -0.196
